Results from PubChem BioAssay AID504832 (National Center for Advancing Translational Sciences (NCATS), 2011).
Among all 310,000 compounds or so, about 18,000 (5.8%) were called active. Inconclusive means that the source gave no clear call. Such entries were picked first, then a sample of the others. Calls follow the shape of the dose curve; as a rule, active = well fitted inhibition curve with a large enough effect; inconclusive = small, poorly fitted or top-dose-only effect, or another doubt; inactive = no such curve, though single readings can be large or run the other way. Potencies of inconclusive entries are left out as doubtful fits.

Assay: Primary qHTS for delayed death inhibitors of the malarial parasite plastid, 48 hour incubation
Conditions: P. falciparum luciferase growth in erythrocytes; series mostly up to 28.7 µM; activity change, negative = inhibition: at the top concentration
Outline: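 Luciferase-expressing parasites in RBCs, 2% Hct / 0.1% parasitemia final; RPMI 1640 + 0.5% Albumax; 37 C, 5% CO2, one generation; luminescence read-out, lower signal = inhibition.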
% is scaled to controls: 0 for no effect and ±100 for the full control effect; potency is read from the fitted curve at half-maximal effect; tags tell the direction and shape of the fitted curve.

Row | SMILES | activity change, negative = inhibition | Potency
1 | CCC(C)NC(=O)c1c(N)n(/N=C/c2ccccn2)c2nc3ccccc3nc12 (stereo not given) | inactive: -0.504% | –
2 | Cc1ccc(NS(=O)(=O)c2ccc3c(c2)OCCCO3)cc1S(=O)(=O)N1CCOCC1 | – | inconclusive [inhibitor, single point]
3 | Cc1cc(=O)[nH]c(-c2cccnc2)n1 | – | inconclusive [inhibitor, partial curve, poor fit]
4 | CCc1noc(C)c1C(=O)Nc1nc(-c2cc(C)ccc2C)c(C)s1 | – | inconclusive [inhibitor, partial curve]
5 | COc1cccc(NC(=O)CN(C)C(=O)c2ccc3c(c2)C(=O)N(CCC(C)C)C3=O)c1 | – | inconclusive [inhibitor, partial curve, poor fit]
6 | CCOC(=O)c1c(/N=C/c2ccc(C)cc2O)sc2c1CCN(C)C2 | – | inconclusive [inhibitor, single point]
7 | COc1ccc(CCC(=O)Nc2ccc3c(c2)OCO3)cc1OC | – | inconclusive [inhibitor, single point]
8 | CCOC(=O)C1(Cc2cccc(OC)c2)CCCN(Cc2nccn2CC)C1 (stereo not given) | – | inconclusive [inhibitor, partial curve]
9 | Cc1cc(C)cc(-n2nnc(C(=O)NCc3ccc(Cl)cc3)c2N)c1 | – | inconclusive [inhibitor, single point]
10 | COc1ccc(N2CCN(C(=O)CSc3nc4ccccc4c(=O)[nH]3)CC2)cc1 | inactive: -13.2% | –
11 | CCOc1ccc(Nc2nc(N)c([N+](=O)[O-])c(N3CCN(C)CC3)n2)cc1 | – | inconclusive [inhibitor, single point]
12 | Cc1ccc(C)c(S(=O)(=O)/N=C2\C=C(NS(=O)(=O)c3ccccc3)C(=O)c3ccccc32)c1 | – | inconclusive [inhibitor, single point]
13 | O=C(NC1CCCN(Cc2ccc(Cl)cc2)C1)c1ccnc(Cl)c1 (stereo not given) | – | inconclusive [inhibitor, single point]
14 | Cc1ccc(SCCC(=O)OCC(=O)NCC2CCCCC2)cc1 | – | inconclusive [inhibitor, partial curve, poor fit]
15 | CC1(C)CC(=O)C=C(NNC(=O)c2ccc(N)cc2)C1 | inactive: 30.3% | –
16 | COc1ccc(S(=O)(=O)N2CCN(C(=O)N3CCOCC3)C2C)cc1 (stereo not given) | inactive: 26.6% | –
17 | Cn1c(CNC(=O)c2ccc(F)cc2)cc2ccccc21 | inactive: 24.3% | –
18 | COC(=O)[C@@H]1Cc2c([nH]c3ccccc23)C(C)(C)N1C(=O)CCl | – | active: 11.7 µM
19 | Cc1cccc(-c2cc3nc(-c4ccccc4)cc(N4CCC5(CC4)OCCO5)n3n2)c1 | – | inconclusive [inhibitor, single point]
20 | c1ccc(-c2ccccc2OCCCN2CCCCC2)cc1 | – | inconclusive [inhibitor, single point]
21 | CC(C)C(=O)Nc1ccc(NC(=O)CCc2ccccc2)cn1 | inactive: 3% | –
22 | COc1ccccc1N=c1scc(-c2ccc3c(c2)NC(=O)CO3)n1CC1CCCO1 (stereo not given) | – | inconclusive [inhibitor, single point]
23 | CC1CN(C(=O)/C=C/c2ccccc2Cl)CC(C)O1 (stereo not given) | inactive: 32.7% | –
24 | Nc1nc(N)c(Cc2ccc(Cl)cc2Cl)c(N)n1 | – | inconclusive [inhibitor, single point]

Row | SMILES | activity change, negative = inhibition | Potency
25 | CC(C)(C)c1ccc(-n2ncc3c2CCCC3NC(=O)CCn2cncn2)cc1 (stereo not given) | inactive: 1.49% | –
26 | Cc1ccc(-c2nnn(CC(=O)N(CCN3CCOCC3)C(C(=O)NC(C)(C)C)c3ccco3)n2)cc1 (stereo not given) | – | inconclusive [inhibitor, partial curve, poor fit]
27 | Cc1cccn2c(NC(=O)c3ccccc3F)c(-c3ccccc3)nc12 | inactive: 2.85% | –
28 | CC(C(=O)c1c[nH]c2ccccc12)N1CCN(C(=O)c2ccco2)CC1 (stereo not given) | – | active: 1.85 µM
29 | CCOC(=O)[C@H]1[C@H]2COc3ccc(OC)cc3[C@@H]2N2C(=O)CN(Cc3ccc(C)cc3)C(=O)[C@@]12C | – | active: 10.4 µM
30 | CC(Sc1nc(N)cc(N)n1)C(=O)NCC1CCCO1 (stereo not given) | – | inconclusive [inhibitor, single point]
31 | Cc1cccc2sc(NC(=O)C3CSC4(C)CCC(=O)N34)nc12 (stereo not given) | inactive: -14.7% | –
32 | COc1ccc(N2C(=O)CC3(CCCC3)CC2=O)cc1 | inactive: 21.5% | –
33 | Cc1ccc2nc(Nc3nc(C)cc(C(F)(F)F)n3)nc(C)c2c1 | – | inconclusive [inhibitor, partial curve, poor fit]
34 | O=C(N=C1SC2CS(=O)(=O)CC2N1c1ccccc1)c1cccc([N+](=O)[O-])c1 (stereo not given) | – | inconclusive [inhibitor, single point]
35 | N#Cc1ccc[n+](CC(=O)c2ccc(NC(=O)c3ccccc3)cc2)c1 | – | inconclusive [inhibitor, partial curve, poor fit]
36 | CC(C)(C)OC(=O)NCCc1nnc(SCC(=O)c2ccc(Cl)cc2)o1 | – | inconclusive [inhibitor, single point]
37 | O=C(C1=C(O)C(=O)N(c2nc3ccc(Cl)cc3s2)C1c1ccco1)c1ccco1 (stereo not given) | – | inconclusive [inhibitor, single point]
38 | CN1CCCC(OC(=O)c2cccc(Cl)c2)C1 (stereo not given) | – | inconclusive [inhibitor, single point]
39 | COc1ccc(CCNC(=O)C(=O)c2c(C)[nH]c3ccccc23)cc1 | inactive: -5.04% | –
40 | Cc1cccc2sc(N(CCCN3CCOCC3)C(=O)CS(=O)(=O)c3ccc(F)cc3)nc12 | – | inconclusive [inhibitor, single point]
41 | Cc1ccc(C(C(=O)NCC2CCCO2)N(C(=O)c2snc(C(N)=O)c2N)c2ccc(C)c(C)c2)o1 (stereo not given) | – | inconclusive [inhibitor, single point]
42 | NC1CCN(c2cccc(Cl)n2)CC1 | inactive: -3.27% | –
43 | COc1ccc(NC(=O)/C(Cl)=C(/Cl)S(=O)Cc2ccccc2)cn1 (stereo not given) | – | active: 14.7 µM
44 | CC(=O)/C(C#N)=C1\NC(=O)C(Cc2ccccc2C)S1 (stereo not given) | – | inconclusive [inhibitor, partial curve, poor fit]
45 | CC1Cc2ccccc2N1C(=O)c1ccnc(C(C)(C)C)c1 (stereo not given) | – | active: 11.7 µM
46 | Cc1ccc(N2C(=O)C3C4C=CC(CNC(=S)Nc5ccc(F)cc5)(O4)C3C2=O)cc1 (stereo not given) | – | inconclusive [inhibitor, partial curve]
47 | CCOc1ccc(NC2=CC(=O)CC(c3ccco3)C2)cc1 (stereo not given) | – | inconclusive [inhibitor, full curve]
48 | COc1ccc(S(=O)(=O)N2CCC3(CC2)OCCO3)cc1 | inactive: -9.03% [at 5.75 µM] | –

Row | SMILES | activity change, negative = inhibition | Potency
49 | CCc1ccc(-n2c(SCC(=O)Nc3cc(C)[nH]n3)nc3[nH]ncc3c2=O)cc1 | – | inconclusive [inhibitor, partial curve, poor fit]
50 | CC(C)C12CN3CC(C(C)C)(CN(C1)C3c1ccc3c(c1)OCO3)C2=O (stereo not given) | – | inconclusive [inhibitor, single point]
51 | COCCCNc1nc2nonc2nc1N1CCN(Cc2cccc(C)c2)CC1 | – | inconclusive [inhibitor, partial curve, poor fit]
52 | COC(=O)C(O)(c1ccc(NC(=O)c2cccs2)cc1)C(F)(F)F (stereo not given) | inactive: 74.7% | –
53 | COCCNc1nc(CSc2ccccc2)nc2sc(C)c(C)c12 | – | inconclusive [inhibitor, partial curve, poor fit]
54 | Cn1cc(/C=C(\NC(=O)c2ccccc2Cl)C(=O)NCCCN2CCOCC2)c2ccccc21 | – | inconclusive [inhibitor, single point]
55 | CC(=O)Oc1ccc(C(=O)Nc2cccc(C(=O)c3ccc(C)c(C)c3)c2)cc1 | – | active: 11.7 µM
56 | COCCCn1cc(C(=O)c2ccccc2OCC(=O)Nc2cccc(F)c2)cc(C#N)c1=O | – | inconclusive [inhibitor, single point]
57 | Cc1ccc(C(C)NC(=O)CSc2ccc(S(=O)(=O)N3CCOCC3)cn2)cc1C (stereo not given) | – | active: 11.7 µM
58 | NS(=O)(=O)c1ccc(CNC(=S)Nc2ccc(Cl)c(Cl)c2)cc1 | inactive: 19.1% | –
59 | COc1ccc(C(=S)N2CCOCC2)cc1OC(=O)c1ccccc1 | inactive: 9.52% | –
60 | Clc1ccc(-n2nnc(-c3cccnc3Cl)n2)cn1 | inactive: 114% | –
61 | COc1cc(/C=C/C(=O)OCC(=O)N2c3ccccc3NC(=O)C2(C)C)cc(OC)c1OC | – | inconclusive [inhibitor, partial curve]
62 | CCOc1ccc(C(=O)/C=C/Nc2ccc(S(=O)(=O)Nc3onc(C)c3C)cc2)cc1 | inactive: 37.4% | –
63 | CC(Oc1ccc(F)cc1)C(=O)Nc1ccc(S(=O)(=O)NC2=NCCCCC2)cc1 (stereo not given) | – | inconclusive [inhibitor, single point]
64 | COC(=O)Cn1nnc(N2CCOCC2)n1 | inactive: 24.1% | –
65 | Cc1c(C(=O)Nc2ccc(Cl)cc2)c2ccccn2c1C(=O)c1ccccc1 | – | inconclusive [inhibitor, full curve, poor fit]
66 | O=C1CSc2ccc(S(=O)(=O)N3CCN(c4ccccc4F)CC3)cc2N1 | – | inconclusive [inhibitor, single point]
67 | COc1cc(OC)c2ccc(=O)oc2c1C(CC(=O)N1CCN(c2ccccc2)CC1)c1ccc2c(c1)OCO2 (stereo not given) | – | active: 11.7 µM
68 | CC(C)NC(C(=O)Nc1cc(Cl)cc(Cl)c1)c1ccccc1 (stereo not given) | – | inconclusive [inhibitor, single point]
69 | COc1ccc(CCNC(=O)Cn2cccc2C(=O)c2ccccc2)cc1OC | inactive: 2.77% | –
70 | C=CCC1(CC=C)CCCN1C(=O)c1cc(COc2ccc(F)c(F)c2)on1 | – | inconclusive [inhibitor, single point]
